Some of the results follow.
These molecules were tested on HepG2 (assay: cytotoxicity call (relative viability < 0.9)). Conditions: 10 µM.

Which cytotoxicity call does the source give for CC(C)NC(=O)N(C)C[C@@H]1Oc2cc(C#Cc3ccccn3)ccc2S(=O)(=O)N([C@H](C)CO)C[C@H]1C here?
Its cytotoxicity call is “inactive”.

How did the cytotoxicity call turn out when CO[C@@H](CN(C)C(=O)c1ccc2c(c1)OCO2)[C@H](C)CN([C@H](C)CO)S(=O)(=O)c1ccc(C)cc1 was run?
Its cytotoxicity call is “inactive”.

For COc1ccc(CN2C[C@@H](C)[C@@H](OC)CN(C)C(=O)c3cc(NC(=O)c4nc5ccccc5s4)ccc3OC[C@H]2C)cc1, which cytotoxicity call is on record?
The cytotoxicity call was “inactive”.

Which cytotoxicity call does the source give for O=C(C[C@H]1CC=CC[C@@H](Cc2ccc(F)cc2)C(=O)OC[C@H](Cc2c[nH]c3ccccc23)NC1=O)NCCO here?
The cytotoxicity call was “inactive”.

Cc1ccc(S(=O)(=O)Nc2ccc3c(c2)C(=O)N([C@H](C)CO)C[C@@H](C)[C@H](CN(C)S(=O)(=O)c2ccc(Cl)cc2)OCCCC[C@H](C)O3)cc1 was tested. Which cytotoxicity call did it give?
Its cytotoxicity call is “inactive”.

For CC(C)NC(=O)Nc1ccc2c(c1)C(=O)N([C@H](C)CO)C[C@H](C)[C@@H](CN(C)C(=O)Nc1ccc(C(F)(F)F)cc1)OCCCC[C@H](C)O2, which cytotoxicity call is on record?
Its cytotoxicity call is “inactive”.

How did the cytotoxicity call turn out when CNC(=O)[C@H]1C[C@H]2CCN(S(=O)(=O)N(C)C)C[C@H]2O1 was run?
Its cytotoxicity call is “inactive”.

With Cc1noc(C)c1NC(=O)Nc1cccc2c1O[C@@H](CN(C)S(=O)(=O)c1cn(C)cn1)[C@@H](C)CN([C@H](C)CO)C2=O as the molecule, how does the cytotoxicity call read?
The cytotoxicity call was “inactive”.

For CC(C)NC(=O)N(C)C[C@@H]1Oc2ccc(NC(=O)CCN3CCOCC3)cc2CC(=O)N([C@H](C)CO)C[C@H]1C, which cytotoxicity call is on record?
Its cytotoxicity call is “inactive”.

Cc1noc(C)c1NC(=O)N(C)C[C@H]1OCCCC[C@H](C)Oc2ccc(NS(=O)(=O)c3ccccc3)cc2C(=O)N([C@H](C)CO)C[C@@H]1C was tested. Which cytotoxicity call did it give?
Its cytotoxicity call is “inactive”.

With C[C@H]1CCCCO[C@@H](CN(C)Cc2ccccc2)[C@@H](C)CN([C@@H](C)CO)C(=O)c2cc(NC(=O)CCC(F)(F)F)ccc2O1 as the molecule, how does the cytotoxicity call read?
The cytotoxicity call was “inactive”.

How did the cytotoxicity call turn out when Cc1ccc(S(=O)(=O)Nc2ccc3c(c2)CC(=O)N([C@@H](C)CO)C[C@H](C)[C@H](CN(C)C(=O)Nc2ccc(C(F)(F)F)cc2)O3)cc1 was run?
Its cytotoxicity call is “inactive”.

C[C@H]1CN([C@@H](C)CO)C(=O)c2ccccc2-c2ccccc2CO[C@@H]1CN(C)S(=O)(=O)c1ccc(C(F)(F)F)cc1 was tested. Which cytotoxicity call did it give?
The cytotoxicity call was “inactive”.

C[C@@H]1CN([C@H](C)CO)C(=O)CCCn2nncc2CO[C@H]1CN(C)C(=O)Nc1cccc(Oc2ccccn2)c1 was tested. Which cytotoxicity call did it give?
The cytotoxicity call was “inactive”.

How did the cytotoxicity call turn out when C[C@H](N)CCC(=O)NCS(=O)(=O)O was run?
The cytotoxicity call was “inactive”.

Which cytotoxicity call does the source give for C[C@@H]1CCCCO[C@H](CN(C)Cc2ccncc2)[C@@H](C)CN([C@H](C)CO)C(=O)c2cc(NS(=O)(=O)c3ccc(Cl)cc3)ccc2O1 here?
The cytotoxicity call was “inactive”.

How did the cytotoxicity call turn out when C[C@H]1CN([C@@H](C)CO)C(=O)c2cc(NS(=O)(=O)c3ccccc3)ccc2O[C@H]1CN(C)C(=O)Nc1cccc2ccccc12 was run?
Its cytotoxicity call is “inactive”.

For CCS(=O)(=O)NCC[C@H]1CC[C@H](NC(=O)C2CCOCC2)[C@H](CO)O1, which cytotoxicity call is on record?
Its cytotoxicity call is “inactive”.

Which cytotoxicity call does the source give for C[C@@H]1CCCCO[C@H](CN(C)Cc2ccc(C(F)(F)F)cc2)[C@@H](C)CN([C@H](C)CO)C(=O)c2cc(NS(=O)(=O)c3ccc(F)cc3)ccc2O1 here?
Its cytotoxicity call is “inactive”.

For C[C@H]1CN([C@@H](C)CO)C(=O)c2cc(NC(=O)CCN3CCOCC3)ccc2O[C@H]1CN(C)C(=O)Nc1ccc2c(c1)OCO2, which cytotoxicity call is on record?
Its cytotoxicity call is “inactive”.

How did the cytotoxicity call turn out when COc1ccc(S(=O)(=O)Nc2cccc3c2O[C@@H](CN(C)Cc2ccc(Cl)c(Cl)c2)[C@H](C)CN([C@H](C)CO)C3=O)cc1 was run?
The cytotoxicity call was “inactive”.

For COc1ccc(NC(=O)Nc2ccc3c(c2)C(=O)N([C@@H](C)CO)C[C@H](C)[C@@H](CN(C)Cc2ccc(-c4ccccc4)cc2)O3)cc1, which cytotoxicity call is on record?
The cytotoxicity call was “inactive”.

With C[C@H](CO)N1C[C@H](C)[C@H](CN(C)CC2CC2)Oc2ccc(NS(=O)(=O)c3ccc(F)cc3)cc2CC1=O as the molecule, how does the cytotoxicity call read?
The cytotoxicity call was “inactive”.

With C[N+](C)(C)CC(O)CC(=O)[O-] (stereo not given) as the molecule, how does the cytotoxicity call read?
Its cytotoxicity call is “active”.

For Cc1ccc(S(=O)(=O)N(C)C[C@H]2Oc3c(NS(C)(=O)=O)cccc3C(=O)N([C@H](C)CO)C[C@@H]2C)cc1, which cytotoxicity call is on record?
The cytotoxicity call was “inactive”.

For C[C@@H]1CN([C@H](C)CO)C(=O)c2cccc(NC(=O)Nc3cccc4ccccc34)c2O[C@@H]1CN(C)S(=O)(=O)c1ccccc1, which cytotoxicity call is on record?
Its cytotoxicity call is “inactive”.

Which cytotoxicity call does the source give for O=c1/c(=C/c2cccc(Cl)c2)c2cccc3cccc1c32 here?
Its cytotoxicity call is “inactive”.

How did the cytotoxicity call turn out when O=C(C[C@H]1CC[C@@H](NC(=O)c2ccc(F)cc2)[C@H](CO)O1)NCc1ccncn1 was run?
Its cytotoxicity call is “inactive”.

Which cytotoxicity call does the source give for O=C(C[C@@H]1C[C@@H]2c3cc(NC(=O)c4cccnc4)ccc3O[C@@H]2[C@@H](CO)O1)NCc1cc(F)ccc1F here?
The cytotoxicity call was “inactive”.

How did the cytotoxicity call turn out when C[C@@H]1CN([C@H](C)CO)C(=O)c2cccc(NC(=O)Nc3ccc4c(c3)OCO4)c2O[C@@H]1CN(C)Cc1ccc(C(F)(F)F)cc1 was run?
The cytotoxicity call was “inactive”.

How did the cytotoxicity call turn out when O=C1O[C@H](c2ccccc2)[C@H](c2ccccc2)N2[C@H]1[C@@H](C(=O)NC[C@@H](O)c1ccccc1)[C@]1(C(=O)Nc3ccc(C#CC4=CCCCC4)cc31)[C@H]2c1ccccc1OCCO was run?
Its cytotoxicity call is “active”.

How did the cytotoxicity call turn out when C[C@@H]1CCCCO[C@@H](CN(C)C(=O)Nc2ccccc2)[C@H](C)CN([C@@H](C)CO)C(=O)c2cc(NC(=O)NC3CCCCC3)ccc2O1 was run?
Its cytotoxicity call is “inactive”.

With O=C1c2ccccc2[C@@]2(Cc3ccccc3N(C3CC3)C2=O)[C@H](c2ccc(CO)cc2)N1Cc1ccccc1 as the molecule, how does the cytotoxicity call read?
The cytotoxicity call was “active”.

Which cytotoxicity call does the source give for C[C@@H]1CCCCO[C@@H](CN(C)C(=O)Cc2ccccc2)[C@H](C)CN([C@H](C)CO)C(=O)c2cc(NS(=O)(=O)c3cccs3)ccc2O1 here?
The cytotoxicity call was “inactive”.

For C[C@@H]1CN([C@H](C)CO)C(=O)c2cc(NC(=O)Cc3ccccc3)ccc2O[C@H]1CN(C)Cc1ccc(Oc2ccccc2)cc1, which cytotoxicity call is on record?
The cytotoxicity call was “active”.

Which cytotoxicity call does the source give for CCCCC[C@@H](C[C@@H](CC(=O)O)O[C@H]1O[C@@H](CO)[C@@H](O[C@H]2O[C@@H](CO)[C@@H](O)[C@@H](O)[C@@H]2O)[C@@H](O)[C@@H]1O)OC(=O)C[C@H](O)C[C@H](CCCCC)O[C@H]1O[C@@H](CO)[C@@H](O)[C@@H](O)[C@@H]1O here?
Its cytotoxicity call is “inactive”.

How did the cytotoxicity call turn out when COc1cccc(CNC(=O)C[C@@H]2CC[C@H]3[C@@H](COC[C@H](O)CN3S(=O)(=O)c3ccc(C)cc3)O2)c1 was run?
The cytotoxicity call was “inactive”.

Which cytotoxicity call does the source give for O=C(C[C@H]1CC[C@H]2[C@@H](COC[C@H](O)CN2S(=O)(=O)c2ccc(Cl)cc2)O1)N[C@H]1CCN(Cc2ccccc2)C1 here?
The cytotoxicity call was “inactive”.

For CCCNC(=O)N(C)C[C@H]1Oc2cc(C#Cc3cccc(F)c3)ccc2S(=O)(=O)N([C@@H](C)CO)C[C@H]1C, which cytotoxicity call is on record?
The cytotoxicity call was “inactive”.

With CN(C)C(=O)c1cccc(-c2ccc3n(c2=O)C[C@@H]2[C@@H](CO)[C@H](C(=O)NCC4CC4)N[C@H]32)c1 as the molecule, how does the cytotoxicity call read?
The cytotoxicity call was “inactive”.
